Here are results for 13 molecules from the supplement of paper PMC8821664.

Each structure is given as a SMILES string. Where a name gives a salt, the structure may show the parent alone. This is one part of the list. Many values rest on one well or one pass, so single values are uncertain.
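Further: monoclonal Beas-2B line stably carrying CMV promoter-driven AQP5-HiBiT, 5,000 cells per well in 384-well plates, lytic HiBiT plus LgBiT NanoLuc luminescence, FDA-approved drug library screen.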

The test system of this experiment is Beas-2B AQP5-HiBiT reporter cells. The experiment in a line: AQP5-HiBiT luminescence relative to vehicle (ratio to vehicle); higher = higher AQP5-HiBiT protein abundance. The note with it: 10 µM; 18 h. (With HiBiT, luminescence reflects the tagged protein that the partner subunit can reach.)
With `CNCCCN1c2ccccc2CCc2ccccc21` [Desipramine hydrochloride], the AQP5-HiBiT luminescence came to 1.12.

Consider `COc1cc2nc(N(C)CCCNC(=O)C3CCCO3)nc(N)c2cc1OC` (stereo not drawn) [Alfuzosin hydrochloride], for which the AQP5-HiBiT luminescence is 1.19.

For the molecule `C[C@@H]1C[C@H]2[C@@H]3C[C@H](F)C4=CC(=O)C=C[C@]4(C)[C@@]3(F)[C@@H](O)C[C@]2(C)[C@@]1(O)C(=O)CO` [Flumethasone], the AQP5-HiBiT luminescence stood at 0.641.

With `CC1(C)O[C@@H]2C[C@H]3[C@@H]4CCC5=CC(=O)CC[C@]5(C)[C@@]4(F)[C@@H](O)C[C@]3(C)[C@]2(C(=O)CCl)O1` [Halcinonide], the AQP5-HiBiT luminescence came out at 0.817.

Consider `CC(N)C12CC3CC(CC(C3)C1)C2` (stereo not drawn) [Rimantadine hydrochloride], for which the AQP5-HiBiT luminescence was determined as 0.843.

On to `CCCCNc1ccc(C(=O)OCCN(C)C)cc1` [Tetracaine hydrochloride], for which the AQP5-HiBiT luminescence was 0.843.

As for `CCn1cc(C(=O)O)c(=O)c2cc(F)c(N3CCNCC3)nc21` [Enoxacin Sesquihydrate], the AQP5-HiBiT luminescence came to 0.83.

`CC(=O)[C@@]1(O)CC[C@H]2[C@@H]3CCC4=CC(=O)CC[C@]4(C)[C@H]3CC[C@@]21C` [Hydroxyprogesterone]: the AQP5-HiBiT luminescence was determined as 1.04.

Turning to `c1ccc2[nH]c(-c3cscn3)nc2c1` [Thiabendazole], the AQP5-HiBiT luminescence amounted to 0.849.

`CCCC(CCC)C(=O)O` [Valerin]: the AQP5-HiBiT luminescence is 0.918.

Consider `CN(C)c1nc(N(C)C)nc(N(C)C)n1` [Altretamine], for which the AQP5-HiBiT luminescence came out at 0.738.

As to `CC(=O)OCC[N+](C)(C)C` [Acetylcholine chloride], the AQP5-HiBiT luminescence turned out to be 1.11.

On to `CCCCOc1ccc(C(=O)CCN2CCCCC2)cc1` [Dyclonine hydrochloride], for which the AQP5-HiBiT luminescence was found to be 1.99.
